# Laboratory results as given in the supplement of paper PMC8728848.
# The list shows a part of the results.
# Experiments:
# Test in all cases: glycan array binding signal (z-score within array); higher = stronger binding
# Conditions in all cases: glycan notation: IUPAC condensed, linker removed
# [1] = biological target: Gal(b1-4)GlcNAc(b1-2)[Gal(b1-4)GlcNAc(b1-6)]Man(a1-6)[GlcNAc(b1-4)][Gal(b1-4)GlcNAc(b1-2)Man(a1-3)]Man(b1-4)GlcNAc(b1-4)GlcNAc
# Outline: (§1)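 Glycan array data came from 3228 arrays in the Consortium for Functional Glycomics database, and only arrays with an available protein sequence were kept. Glycan names were put into IUPAC-condensed notation, and columns mapping to the same glycan were averaged. The binding signal is a within-array Z-score, averaged across arrays of one protein sequence run at different concentrations or buffers and across linkers. A negative Z-score can be read as non-binding.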
# [2] = biological target: Gal(b1-4)GlcNAc(b1-2)[Gal(b1-4)GlcNAc(b1-6)]Man(a1-6)[GlcNAc(b1-4)][Gal(b1-4)GlcNAc(b1-2)[Gal(b1-4)GlcNAc(b1-4)]Man(a1-3)]Man(b1-4)GlcNAc(b1-4)[Fuc(a1-6)]GlcNAc
# Outline: as §1
# [3] = biological target: Gal(b1-4)GlcNAc(b1-3)Gal(b1-3)GalNAc
# Outline: as §1
# [4] = biological target: Gal(b1-4)GlcNAc(b1-3)Gal(b1-3)GlcNAc
# Outline: as §1
# [5] = biological target: Gal(b1-4)GlcNAc(b1-3)Gal(b1-4)Glc
# Outline: as §1
# [6] = biological target: Gal(b1-4)GlcNAc(b1-3)Gal(b1-4)GlcNAc
# Outline: as §1
# [7] = biological target: Gal(b1-4)GlcNAc(b1-3)Gal(b1-4)GlcNAc(b1-2)Man(a1-3)[Gal(b1-4)GlcNAc(b1-3)Gal(b1-4)GlcNAc(b1-2)Man(a1-6)]Man(b1-4)GlcNAc(b1-4)GlcNAc
# Outline: as §1
# [8] = biological target: Gal(b1-4)GlcNAc(b1-3)Gal(b1-4)GlcNAc(b1-2)Man(a1-3)[Gal(b1-4)GlcNAc(b1-3)Gal(b1-4)GlcNAc(b1-2)Man(a1-6)]Man(b1-4)GlcNAc(b1-4)[Fuc(a1-6)]GlcNAc
# Outline: as §1
# [9] = biological target: Gal(b1-4)GlcNAc(b1-3)Gal(b1-4)GlcNAc(b1-2)[Gal(b1-4)GlcNAc(b1-3)Gal(b1-4)GlcNAc(b1-6)]Man(a1-6)[Gal(b1-4)GlcNAc(b1-3)Gal(b1-4)GlcNAc(b1-2)Man(a1-3)]Man(b1-4)GlcNAc(b1-4)GlcNAc
# Outline: as §1
# [10] = biological target: Gal(b1-4)GlcNAc(b1-3)Gal(b1-4)GlcNAc(b1-2)[Gal(b1-4)GlcNAc(b1-3)Gal(b1-4)GlcNAc(b1-6)]Man(a1-6)[Gal(b1-4)GlcNAc(b1-3)Gal(b1-4)GlcNAc(b1-2)Man(a1-3)]Man(b1-4)GlcNAc(b1-4)[Fuc(a1-6)]GlcNAc
# Outline: as §1
# [11] = biological target: Gal(b1-4)GlcNAc(b1-3)Gal(b1-4)GlcNAc(b1-3)Gal(b1-4)GlcNAc
# Outline: as §1
# [12] = biological target: Gal(b1-4)GlcNAc(b1-3)Gal(b1-4)GlcNAc(b1-3)Gal(b1-4)GlcNAc(b1-2)Man(a1-3)[Gal(b1-4)GlcNAc(b1-3)Gal(b1-4)GlcNAc(b1-3)Gal(b1-4)GlcNAc(b1-2)Man(a1-6)]Man(b1-4)GlcNAc(b1-4)GlcNAc
# Outline: as §1
# [13] = biological target: Gal(b1-4)GlcNAc(b1-3)Gal(b1-4)GlcNAc(b1-3)Gal(b1-4)GlcNAc(b1-2)Man(a1-3)[Gal(b1-4)GlcNAc(b1-3)Gal(b1-4)GlcNAc(b1-3)Gal(b1-4)GlcNAc(b1-2)Man(a1-6)]Man(b1-4)GlcNAc(b1-4)[Fuc(a1-6)]GlcNAc
# Outline: as §1
# [14] = biological target: Gal(b1-4)GlcNAc(b1-3)Gal(b1-4)GlcNAc(b1-3)Gal(b1-4)GlcNAc(b1-2)[Gal(b1-4)GlcNAc(b1-3)Gal(b1-4)GlcNAc(b1-3)Gal(b1-4)GlcNAc(b1-6)]Man(a1-6)[Gal(b1-4)GlcNAc(b1-3)Gal(b1-4)GlcNAc(b1-3)Gal(b1-4)GlcNAc(b1-2)Man(a1-3)]Man(b1-4)GlcNAc(b1-4)[Fuc(a1-6)]GlcNAc
# Outline: as §1
# [15] = biological target: Gal(b1-4)GlcNAc(b1-3)Gal(b1-4)GlcNAc(b1-3)Gal(b1-4)GlcNAc(b1-3)Gal(b1-4)GlcNAc(b1-2)Man(a1-3)[Gal(b1-4)GlcNAc(b1-3)Gal(b1-4)GlcNAc(b1-3)Gal(b1-4)GlcNAc(b1-3)Gal(b1-4)GlcNAc(b1-2)Man(a1-6)]Man(b1-4)GlcNAc(b1-4)GlcNAc
# Outline: as §1
# [16] = biological target: Gal(b1-4)GlcNAc(b1-3)Gal(b1-4)GlcNAc(b1-3)Gal(b1-4)GlcNAc(b1-3)Gal(b1-4)GlcNAc(b1-2)Man(a1-3)[Gal(b1-4)GlcNAc(b1-3)Gal(b1-4)GlcNAc(b1-3)Gal(b1-4)GlcNAc(b1-3)Gal(b1-4)GlcNAc(b1-2)Man(a1-6)]Man(b1-4)GlcNAc(b1-4)[Fuc(a1-6)]GlcNAc
# Outline: as §1
# [17] = biological target: Gal(b1-4)GlcNAc(b1-3)Gal(b1-4)GlcNAc(b1-3)Gal(b1-4)GlcNAc(b1-3)Gal(b1-4)GlcNAc(b1-2)[Gal(b1-4)GlcNAc(b1-3)Gal(b1-4)GlcNAc(b1-3)Gal(b1-4)GlcNAc(b1-3)Gal(b1-4)GlcNAc(b1-6)]Man(a1-6)[Gal(b1-4)GlcNAc(b1-3)Gal(b1-4)GlcNAc(b1-3)Gal(b1-4)GlcNAc(b1-3)Gal(b1-4)GlcNAc(b1-2)Man(a1-3)]Man(b1-4)GlcNAc(b1-4)[Fuc(a1-6)]GlcNAc
# Outline: as §1
# [18] = biological target: Gal(b1-4)GlcNAc(b1-3)Gal(b1-4)GlcNAc(b1-3)Gal(b1-4)GlcNAc(b1-3)Gal(b1-4)GlcNAc(b1-3)Gal(b1-4)GlcNAc(b1-2)Man(a1-3)[Gal(b1-4)GlcNAc(b1-3)Gal(b1-4)GlcNAc(b1-3)Gal(b1-4)GlcNAc(b1-3)Gal(b1-4)GlcNAc(b1-3)Gal(b1-4)GlcNAc(b1-2)Man(a1-6)]Man(b1-4)GlcNAc(b1-4)GlcNAc
# Outline: as §1
# [19] = biological target: Gal(b1-4)GlcNAc(b1-3)Gal(b1-4)GlcNAc(b1-3)Gal(b1-4)GlcNAc(b1-3)Gal(b1-4)GlcNAc(b1-3)Gal(b1-4)GlcNAc(b1-2)Man(a1-3)[Gal(b1-4)GlcNAc(b1-3)Gal(b1-4)GlcNAc(b1-3)Gal(b1-4)GlcNAc(b1-3)Gal(b1-4)GlcNAc(b1-3)Gal(b1-4)GlcNAc(b1-2)Man(a1-6)]Man(b1-4)GlcNAc(b1-4)[Fuc(a1-6)]GlcNAc
# Outline: as §1
# [20] = biological target: Gal(b1-4)GlcNAc(b1-3)Gal(b1-4)GlcNAc(b1-3)Gal(b1-4)GlcNAc(b1-3)Gal(b1-4)GlcNAc(b1-3)Gal(b1-4)GlcNAc(b1-2)[Gal(b1-4)GlcNAc(b1-3)Gal(b1-4)GlcNAc(b1-3)Gal(b1-4)GlcNAc(b1-3)Gal(b1-4)GlcNAc(b1-3)Gal(b1-4)GlcNAc(b1-6)]Man(a1-6)[Gal(b1-4)GlcNAc(b1-3)Gal(b1-4)GlcNAc(b1-3)Gal(b1-4)GlcNAc(b1-3)Gal(b1-4)GlcNAc(b1-3)Gal(b1-4)GlcNAc(b1-2)Man(a1-3)]Man(b1-4)GlcNAc(b1-4)[Fuc(a1-6)]GlcNAc
# Outline: as §1
# [21] = biological target: Gal(b1-4)GlcNAc(b1-3)Gal(b1-4)GlcNAc(b1-3)Gal(b1-4)GlcNAc(b1-3)Gal(b1-4)GlcNAc(b1-3)Gal(b1-4)GlcNAc(b1-3)Gal(b1-4)GlcNAc(b1-2)Man(a1-3)[Gal(b1-4)GlcNAc(b1-3)Gal(b1-4)GlcNAc(b1-3)Gal(b1-4)GlcNAc(b1-3)Gal(b1-4)GlcNAc(b1-3)Gal(b1-4)GlcNAc(b1-3)Gal(b1-4)GlcNAc(b1-2)Man(a1-6)]Man(b1-4)GlcNAc(b1-4)GlcNAc
# Outline: as §1
# [22] = biological target: Gal(b1-4)GlcNAc(b1-3)Gal(b1-4)GlcNAc(b1-3)GalNAc
# Outline: as §1
# [23] = biological target: Gal(b1-4)GlcNAc(b1-3)Gal(b1-4)GlcNAc(b1-3)[Gal(b1-4)GlcNAc(b1-3)Gal(b1-4)GlcNAc(b1-6)]GalNAc
# Outline: as §1
binder,measurement,setting,value
SP16664D-bth-476-27-476 (Bacteroides thetaiotaomicron) (protein) DDLEVGKNIDESAYSGIYENNAYLRDGKSNLVSKVVELHGETYATTVKMGLSKTPNTATSAKVKIDAAYLETYNKAHNTDFALYPQDLVTFANEGILTVNANTKSAEVEMTIRAGEGLQEDKTYAIPVAISDQSSDITIKDEDAKHCIYLVKDMRNAGDAYKGEGVMQGYLFFEVNDVNPLNTLSFQLENGKLLWDVVVLFAANINYDAEAGRPRVQCNPNVQYLLDNNETLLQPLRRRGVKVLLGLLGNHDITGLAQLSEQGAKDFAREVAQYCKAYNLDGVNYDDEYSNSPDLSNPSLTNPSTAAAARLCYETKQAMPDKLVTVFDWGQMYGVATVDGVDAKEWIDIVVANYGSAAYPIGQMTKKQCSGISMEFNLGGGGSLSASKAQSMIDGGYGWFMGFAPSPAKYGSVFSRLQGGGEVLYGSNVAAPTIFYKKNDPTPYKYPDDL,glycan array binding signal (z-score),[1],-0.27
same,glycan array binding signal (z-score),[2],0.181
same,glycan array binding signal (z-score),[3],-0.387
same,glycan array binding signal (z-score),[4],-0.228
same,glycan array binding signal (z-score),[5],-0.062
same,glycan array binding signal (z-score),[6],-0.123
same,glycan array binding signal (z-score),[7],-0.139
same,glycan array binding signal (z-score),[8],-0.031
same,glycan array binding signal (z-score),[9],0.04
same,glycan array binding signal (z-score),[10],0.032
same,glycan array binding signal (z-score),[11],0.004
same,glycan array binding signal (z-score),[12],0.346
same,glycan array binding signal (z-score),[13],0.08
same,glycan array binding signal (z-score),[14],1.01
same,glycan array binding signal (z-score),[15],0.253
same,glycan array binding signal (z-score),[16],0.161
same,glycan array binding signal (z-score),[17],0.02
same,glycan array binding signal (z-score),[18],0.13
same,glycan array binding signal (z-score),[19],20
same,glycan array binding signal (z-score),[20],0.553
same,glycan array binding signal (z-score),[21],-0.028
same,glycan array binding signal (z-score),[22],-0.091
same,glycan array binding signal (z-score),[23],-0.045
